In PubChem BioAssay (NCI):
Where “and” joins values, the source holds several entries; their conditions need not be identical. Equal values may be shown once.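 Assay format: 96-well plates, 48-hour exposure. The concentration for 50% growth inhibition is given as GI50. Definition used: TGI = concentration required for complete inhibition of growth.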

Test system: NCI-H322M lung
Experiment: growth of human tumour cells (NCI), 48 h

Row | SMILES | TGI | GI50
1 | CSc1c(C(C)=O)c(O)n(-c2ccc(C)cc2)c(=O)c1C#N | > 100 µM | 
2 | C[N+](C)(CCNc1ccc(NCC[N+](C)(C)Cc2ccc([N+](=O)[O-])cc2)c2c1C(=O)c1c(O)ccc(O)c1C2=O)Cc1ccc([N+](=O)[O-])cc1 | > 50 µM | 
3 | Cc1ccc(C2=CC(=O)/C(=C\C(=O)c3ccc(Br)cc3)O2)c(C)c1 | > 68.2 µM | 
4 | O/N=C\c1c2c(cc3c1CCC3)CCC2 | > 100 µM | 
5 | CNC(=O)CCN1CCN(CC/C=C2\c3ccccc3Sc3ccc(Cl)cc32)CC1 | 29.4 µM | 14.8 µM
6 | CNC(=O)OCc1cnc([N+](=O)[O-])n1C | > 100 µM | 
7 | NC1=Nc2cc(C(F)(F)F)ccc2Sc2nc3ccccc3n21 | > 100 µM | 
8 | COC(=O)Cc1cc(=O)n2c3ccccc3n(C)c2c1C#N | > 100 µM | 
9 | C=CCOCC1C2CCC3(OCCO3)C21 (stereo not given) | > 100 µM | 
10 | CN1NC(c2ccc(Cl)cc2)=C(C#N)C(=O)CC1c1ccccc1 (stereo not given) | > 100 µM | 
11 | CC(C)=CCC[C@@H](C)C1=C(O)C(N[C@H](C)c2ccccc2)=C(C)C(=O)C1=O | 27.3 µM | 
12 | CCOC(=O)C1=C(O)CC(=O)N=C1N1CCCC1 | > 100 µM | 
13 | NC(=NCCCCCCN=C(N)/N=C(\N)Nc1ccc(Cl)cc1)/N=C(\N)Nc1ccc(Cl)cc1 | 6.68 µM | 1.56 µM
14 | Cc1nc2ccc(NCCN(C)C)c3c(=O)c4ccccc4n1c23 | 12.2 µM | 
15 | O=C(O)CNc1ccc2c(c1)Cc1cc(Br)ccc1-2 | > 77.4 µM | 
16 | CC1=NN(c2nc(N)nc(CO)n2)C(C)(C)C1 | > 100 µM | 
17 | CC1NOC(=O)C1N=Nc1cccc(Cl)c1 (stereo not given) | > 100 µM | 
18 | Cc1cc(C)c2nc3c(c(C(O)C4CCCCN4)c2c1)CC/C3=C\c1ccc(Cl)cc1 (stereo not given) | > 100 µM | 
19 | Brc1ccc2[nH]c3c(C4=NCCC4)nccc3c2c1 | > 67.3 µM | 
20 | OCCCN=C1CCCCC1 | > 100 µM | 
21 | O=C1CCC(c2ccccc2)=NN1c1nc2ccccc2s1 | > 100 µM | 
22 | [O]=[Sn]([CH]1CCCCC1)[CH]1CCCCC1 | 2.11 µM | 0.666 µM
23 | NCCCN(CCCCN(CCCN)CCCc1ccccc1)CCCc1ccccc1 | 12.7 µM | 

Row | SMILES | TGI | GI50
24 | O=c1cc(-c2cccc(OC(F)(F)F)c2)[nH]c2ccc(N3CCCC3)cc12 | > 100 µM | 
25 | CC(C)(O)C1COC2=C1C(=O)c1ccccc1C2=O (stereo not given) | > 100 µM | 
26 | Cc1ccc(C)c2c1C1CCCCC3(OCCCO3)C21O (stereo not given) | > 100 µM | 
27 | O=P(CN1CCOCC1)(c1ccccc1)c1ccccc1 | > 100 µM | 
28 | CCCC(=O)Nc1cc(C(=O)N2C[C@H]3C[C@@]34C2=CC(=O)c2[nH]cc(C)c24)n(COC)c1 | 2.77 µM and 10.5 µM | 0.276 µM
29 | CCOc1ccc(NC(=O)CC2SC(=Nc3ccc(C)cc3)NC2=O)cc1 (stereo not given) | > 100 µM | 
30 | CCOP1(=O)CC(C)=C(Cl)C(OC)C1 (stereo not given) | > 100 µM | 
31 | Nc1nc(SCc2ccccc2Cl)c2ncn(C3OC(CO)C(O)C3O)c2n1 (stereo not given) | > 100 µM | 
32 | CN1C2C=CC(=O)C1C1C(=O)N(c3ccccc3)C(=O)C12 (stereo not given) | 29.3 µM | 13.8 µM
33 | CCCCCCCCCCCC/C=C\CC[C@@H](O)[C@H](O)CC[C@H](O)[C@@H]1CC[C@@H](CCCCCCCC2=C[C@H](C)OC2=O)O1 | 32 µM | 
34 | N#C/C(=C\c1ccc(O)cc1)C(N)=O | > 100 µM | 
35 | C=CCC(N[C@@H](CO)c1ccccc1)c1ccc2ccccc2n1 (stereo not given in full) | > 100 µM | > 100 µM
36 | CC1CC(=O)N(N(C)C)C2(C#N)C(=O)N=C(N)C12C#N (stereo not given) | > 100 µM | 
37 | CC1(C)N=C(C(N)=O)c2[nH]cnc2N1 | > 100 µM | 
38 | CCCCNc1ncnc2c1cnn2-c1ccccc1 | > 100 µM | 6.09 µM
39 | CC(=O)O[C@H]1[C@@H](N2CCOCC2)C[C@H]2[C@@H]3CC=C4C[C@@H](N5CCCC5)CC[C@]4(C)[C@H]3CC[C@@]21C | > 100 µM | 
40 | CCc1ccc2c(c1)C(=O)c1c-2n(CCCN)c(=O)c2cc(OC)c(OC)cc12 | 3.06 µM | 1.56 µM
41 | Cc1cc(Cl)ccc1N=C1NC(=O)C(CC(=O)Nc2cccc(Cl)c2)S1 (stereo not given) | > 100 µM | 
42 | CCOC(=O)C(C)c1nc2cc(F)c(F)cc2[nH]c1=O (stereo not given) | > 100 µM | 
43 | C[C@]12CC[C@H]3[C@@H](CC=C4C[C@@H](O)CC[C@@]43C)[C@@H]1C/C(=C\c1cccnc1)[C@@H]2O | > 100 µM | 
44 | CCCCCCCCCCCCCCCCCc1nc(Cl)nc(Cl)c1Cl | > 100 µM | 
45 | Clc1ccc2c(NCCNc3nc(N4CCOCC4)nc4ccccc34)ccnc2c1 | 7.18 µM | 2.31 µM
46 | CCOc1ccc2nc(NC(=O)C(=O)C3C(=O)C(CC4C(=O)c5ccccc5C4=O)C(=O)CC3(C)C)sc2c1 (stereo not given) | > 100 µM | 
